# Among all 52,000 compounds or so, about 1,700 (3.3%) were called active. Rule as the data show it: active = survival mostly below about 52% (no sharp cut-off); inactive = mostly above about 56%. Some of the results follow.
# Test system: Wild type
# Assay: growth inhibition of S. aureus wild type versus tarO mutant, primary screen, teichoic acid synthesis inhibitors, RN4220, OD600 (AID 463173)
# Settings: S. aureus RN4220 wild type/DeltatarO growth, OD600, 18 h, stronger effect = lower value, screened at 18.75 µg/mL (by protocol)
row,Structure (SMILES),survival
1,CCNC(=O)c1c(NC(=O)Cc2coc3cc(C)ccc23)sc2c1CCCC2,inactive: 94%
2,CCn1c(C(=O)NCc2ccc(OC)cc2)cc2sc(Cl)cc21,inactive: 37%
3,Cc1ccc(Nc2ncnc3onc(C)c23)cc1Cl,inactive: 80%
4,CCc1ccccc1NC(=O)Cc1cn(C)c2ccccc12,inactive: 74%
5,O=C(Nc1c(O)c2ccccc2oc1=O)c1cccc(F)c1,inactive: 82%
6,CCOc1ccc(S(=O)(=O)Nc2cccc(C)c2)c2cccnc12,inactive: 104%
7,COc1cc(Cl)c(C)cc1NC(=O)c1ccc(CN2C(=O)CCn3nc(C)cc32)cc1,inactive: 71%
8,Cc1c(Cl)cccc1NC(=O)CSc1ncc(S(=O)(=O)c2ccc(C(C)C)cc2)c(=O)[nH]1,inactive: 84%
9,Cc1cc(C)cc(NC(=O)c2ccc3c(O)c(S(=O)(=O)c4ccccc4)c(=O)[nH]c3c2)c1,inactive: 91%
10,CCC(=O)Nc1ccccc1-c1nnn(CC(=O)N2c3ccccc3CC2C)n1 (stereo not given),inactive: 102%
11,CCOC(=O)c1c(C)[nH]c(C)c1S(=O)(=O)N1CCCC(C(=O)Nc2ccc(C)c(N(C)C)c2)C1 (stereo not given),inactive: 79%
12,CCOC(=O)c1[nH]c(C)c(CCC(=O)NCc2cccc(C)c2)c1C,inactive: 105%
13,Cc1ccc(OCC(=O)N(Cc2ccco2)c2ccccn2)cc1,inactive: 80%
14,CCNC(=O)C1CCCN(c2nnc(C)c3c(C)n(-c4ccc(C)cc4)nc23)C1 (stereo not given),inactive: 83%
15,CCCCOC(=O)c1ccc(NC(=O)Cc2coc3c(C)c(C)ccc23)cc1,inactive: 109%
16,COC(=O)c1ccccc1NC(=O)C1(c2cccs2)CCOCC1,inactive: 89%
17,Cc1cccc(CNC(=O)CN2C(=O)C3CCCCN3c3ccc(C(=O)N4CCCC4)cc32)c1 (stereo not given),inactive: 75%
18,Oc1c(C(c2ccccc2Cl)N2CCOCC2)sc2nc(-c3ccco3)nn12 (stereo not given),active: -2%
19,CCC(=O)N1CCc2cc(CNC(=O)Nc3cc(C)ccc3C)ccc21,inactive: 77%
20,Cc1ccc(C(=O)N2CCN(c3ccc(F)cc3)CC2)cc1NC(=O)c1nsc2ccccc12,inactive: 87%
21,Cc1ccc(-c2nnc(Nc3ccc(Cl)c(Cl)c3)c3ccccc23)cc1S(=O)(=O)N(C)C,inactive: 84%
22,COc1ccc(CCNS(=O)(=O)c2ccc(F)c(C(=O)Nc3ccc(Cl)cc3)c2)cc1OC,inactive: 126%
23,COc1ccc(CCN2C(=O)CN=C2Nc2ccc(F)cc2)cc1OC,inactive: 98%
24,CC(=O)N1CCN(c2nc3c(C)ccc(Cl)c3s2)CC1,inactive: 74%
25,CC(=O)c1cccc(NC(=O)Cn2c(=O)oc3cc(S(=O)(=O)NC4CCCC4)ccc32)c1,inactive: 82%

# From PubChem BioAssay AID463173 (ICCB-Longwood Screening Facility, Harvard Medical School, 2010)
